Data as given in the supplement of paper PMC8728848.
Some of the results follow.

Tests used:
Experiment in all cases: glycan array binding signal (z-score within array); higher = stronger binding
Details in all cases: glycan notation: IUPAC condensed, linker removed
Neu5Ac(a2-8)Neu5Ac = biological target: Neu5Ac(a2-8)Neu5Ac
Outline: (§1)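 Glycan array data came from 3228 arrays in the Consortium for Functional Glycomics database, and only arrays with an available protein sequence were kept. Glycan names were put into IUPAC-condensed notation, and columns mapping to the same glycan were averaged. The binding signal is a within-array Z-score, averaged across arrays of one protein sequence run at different concentrations or buffers and across linkers. A negative Z-score can be read as non-binding.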

[1] = biological target: Neu5Ac(a2-8)Neu5Ac(a2-3)Gal(b1-4)Glc
Outline: as §1

[2] = biological target: Neu5Ac(a2-8)Neu5Ac(a2-3)[GalNAc(b1-4)]Gal(b1-4)Glc
Outline: as §1

[3] = biological target: Neu5Ac(a2-8)Neu5Ac(a2-8)Neu5Ac
Outline: as §1

[4] = biological target: Neu5Ac(a2-8)Neu5Ac(a2-8)Neu5Ac(a2-3)Gal(b1-4)Glc
Outline: as §1

[5] = biological target: Neu5Ac(a2-8)Neu5Ac(a2-8)Neu5Ac(a2-3)[GalNAc(b1-4)]Gal(b1-4)Glc
Outline: as §1

[6] = biological target: Neu5Ac(a2-8)Neu5Ac(a2-8)Neu5Ac(a2-8)Neu5Ac(a2-3)[GalNAc(b1-4)]Gal(b1-4)Glc
Outline: as §1

[7] = biological target: Neu5Ac(b2-6)Gal(b1-4)GlcNAc
Outline: as §1

Neu5Ac(b2-6)GalNAc = biological target: Neu5Ac(b2-6)GalNAc
Outline: as §1

[8] = biological target: Neu5Ac9Ac(a2-3)Gal(b1-3)GlcNAc
Outline: as §1

[9] = biological target: Neu5Ac9Ac(a2-3)Gal(b1-4)GlcNAc
Outline: as §1

[10] = biological target: Neu5Ac9Ac(a2-6)Gal(b1-4)GlcNAc
Outline: as §1

[11] = biological target: Neu5Gc(a2-3)Gal(b1-3)GlcNAc
Outline: as §1

[12] = biological target: Neu5Gc(a2-3)Gal(b1-3)[Fuc(a1-4)]GlcNAc
Outline: as §1

Neu5Gc(a2-3)Gal(b1-4)Glc = biological target: Neu5Gc(a2-3)Gal(b1-4)Glc
Outline: as §1

[13] = biological target: Neu5Gc(a2-3)Gal(b1-4)GlcNAc
Outline: as §1

[14] = biological target: Neu5Gc(a2-3)Gal(b1-4)[Fuc(a1-3)]GlcNAc
Outline: as §1

[15] = biological target: Neu5Gc(a2-6)Gal(b1-4)GlcNAc
Outline: as §1

Neu5Gc(a2-6)GalNAc = biological target: Neu5Gc(a2-6)GalNAc
Outline: as §1

[16] = biological target: Neu5Gc(b2-6)Gal(b1-4)GlcNAc
Outline: as §1

B1: Gal 1 (Canis lupus) (protein)
chain: MACGLVASNLSLKPGQCLRVQCEVVPEAKSFVLNLGKDGDNLCLHFNPRFEAHGDVNTIVCNSKDGGAWGEELRESAFPFQPGTVTEVCISFDQADLTIKLPDGYTFKFPNRLNLEAISYLAADGDMKIKCLAFD
glycan array binding signal (z-score) (Neu5Ac(a2-8)Neu5Ac): -0.318
glycan array binding signal (z-score) [1]: -0.055
glycan array binding signal (z-score) [2]: -0.332
glycan array binding signal (z-score) [3]: -0.324
glycan array binding signal (z-score) [4]: -0.311
glycan array binding signal (z-score) [5]: -0.32
glycan array binding signal (z-score) [6]: -0.31
glycan array binding signal (z-score) [7]: -0.338
glycan array binding signal (z-score) (Neu5Ac(b2-6)GalNAc): -0.315
glycan array binding signal (z-score) [8]: 0.272
glycan array binding signal (z-score) [9]: 0.093
glycan array binding signal (z-score) [10]: -0.303
glycan array binding signal (z-score) [11]: 0.64
glycan array binding signal (z-score) [12]: -0.315
glycan array binding signal (z-score) (Neu5Gc(a2-3)Gal(b1-4)Glc): -0.296
glycan array binding signal (z-score) [13]: 0.209
glycan array binding signal (z-score) [14]: -0.321
glycan array binding signal (z-score) [15]: -0.208
glycan array binding signal (z-score) (Neu5Gc(a2-6)GalNAc): -0.307
glycan array binding signal (z-score) [16]: -0.304
